Some of the results follow. Many values rest on one well or one pass, so single values are uncertain.
Experiments:
Assay in all cases: cell count relative to DMSO control; melanoma cells; higher = more viable cells
Conditions in all cases: library dose: low library concentration; 72 h
[1] = system: COLO792
[2] = system: COLO800
[3] = system: COLO829
[4] = system: G361
[5] = system: IPC-298
[6] = system: IST-MEL1
[7] = system: LB2518-MEL
[8] = system: LOXIMVI
[9] = system: MEL-HO
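Note: cell number obtained by counting DAPI-stained nuclei in high-throughput microscope images with image analysis software, screen run in 1,536-well plates.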

## CS(=O)(=O)c1ccc(C(=O)Nc2ccc(Cl)c(-c3ccccn3)c2)c(Cl)c1 [vismodegib] + O=C1NC(=O)/C(=C/c2ccc(-c3ccc(F)cc3O)o2)S1 [AS252424] (first compound 1 µM, partner dose 1 µM)
[1]
  cell count: 113%
[2]
  cell count: 98.8%
[3]
  cell count: 106%
[4]
  cell count: 99%
[5]
  cell count: 96.9%
[6]
  cell count: 100%
[7]
  cell count: 76%
[8]
  cell count: 95.9%
[9]
  cell count: 94.5%

## CCCS(=O)(=O)Nc1ccc(F)c(C(=O)c2c[nH]c3ncc(Cl)cc23)c1F + Cc1ccc(NC(=O)c2cccc(N(C)C)c2)cc1NC(=O)c1ccc(O)cc1 [ZM336372] (first compound 0.08 µM, partner dose 2 µM)
[1]
  cell count: 87.4%
[2]
  cell count: 95.7%
[3]
  cell count: 103%
[4]
  cell count: 94.7%
[5]
  cell count: 84.7%
[6]
  cell count: 94.3%
[7]
  cell count: 86.3%
[8]
  cell count: 91.3%
[9]
  cell count: 81.8%

## CN(c1ncccc1CNc1nc(Nc2ccc3c(c2)CC(=O)N3)ncc1C(F)(F)F)S(C)(=O)=O + CO[C@@H]1[C@H](N(C)C(=O)c2ccccc2)C[C@H]2O[C@]1(C)n1c3ccccc3c3c4c(c5c6ccccc6n2c5c31)C(=O)NC4 [Midostaurin] (first compound 0.08 µM, partner dose 0.08 µM)
[1]
  cell count: 82.7%
[2]
  cell count: 148%
[3]
  cell count: 75.5%
[4]
  cell count: 86.1%
[5]
  cell count: 93.7%
[6]
  cell count: 103%
[8]
  cell count: 31.6%
[9]
  cell count: 91.5%
